Experimental data published in publication PMC5892938.
Some of the results follow. At the low end of the ranking the order means little.

molecular target: GST-SBP-SLBP (stem-loop binding protein) (UniProt Q14493); assay: targeted RNA Bind-n-Seq; conditions: RBNS binding buffer: 25 mM Tris pH 7.5, 150 mM KCl, 3 mM MgCl2, 0.1% Tween, 0.5 mg/mL BSA, 1 mM DTT; 27 nM protein, 750 pM RNA pool; temperature not stated; high values mean tight binding;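 also: DESeq read counts versus GST-SBP nonspecific binding control pulldown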

Sequence	binding signal (log2 fold change)
GGUCACGUCUCAAUCAACUCAUUUCCAGGAGUUUUCUCCUGCUUAUUCAACAGCUCGCAGUCAAG	-0.161
GGUCACGUCUCAAUCAACUCAUCGUCCAGGGAAAUCCCUGGUUAUUUCAACAGCUCGCAGUCAAG	0.205
GGUCACGUCUCAAUCAACUCAUCGUCCAGGGAAAACCCUGGCAAAUUCAACAGCUCGCAGUCAAG	-0.235
GGUCACGUCUCAAUCAACUCAACUUCAGGAGUUUUCUCCUGCUAUCUCAACAGCUCGCAGUCAAG	-0.0268
GGUCACGUCUCAAUCAACUCUUUCCCAGGAGUUUACUCCUGCAAAUUCAACAGCUCGCAGUCAAG	-0.0762
GGUCACGUCUCAAUCAACUCUAUCUCCAGGGAAACCCCUGGCUUAUUCAACAGCUCGCAGUCAAG	-0.154
GGUCACGUCUCAAUCAACUCCCUAGAGGGGGGGAAAACCCCUUUACCCUCACCAUCAACAGCUCGCAGUCAAG	0.197
GGUCACGUCUCAAUCAACUCAACUUCCAGGGAAACCCCUGGUUAUCUCAACAGCUCGCAGUCAAG	-0.153
GGUCACGUCUCAAUCAACUCUUUUUCCAGGGAAACCCCUGGUUAAUUCAACAGCUCGCAGUCAAG	-0.228
GGUCACGUCUCAAUCAACUCCAUAGAGGGGGGGAAAACCCCUUUGCCCUCACACUCAACAGCUCGCAGUCAAG	0.119
GGUCACGUCUCAAUCAACUCAAUUUCAGGAGUUUUCUCCUGUUUUCUCAACAGCUCGCAGUCAAG	-0.024
GGUCACGUCUCAAUCAACUCUAACGAGGGGGGGAAAACCCCUUUGCCCUCAUUUUCAACAGCUCGCAGUCAAG	-0.243
GGUCACGUCUCAAUCAACUCAUCCCCCAGGGAAACCCCUGGUAAUUUCAACAGCUCGCAGUCAAG	-0.0379
GGUCACGUCUCAAUCAACUCUCAGGAGGGGGGGAAAACCCCUUUACCCUCAUCGUCAACAGCUCGCAGUCAAG	0.309
GGUCACGUCUCAAUCAACUCAGUUUCAGGAGUUUACUCCUGCAUAUUCAACAGCUCGCAGUCAAG	0.164
GGUCACGUCUCAAUCAACUCAAUCUCCAGGGAAAUCCCUGGUAUACUCAACAGCUCGCAGUCAAG	-0.0721
GGUCACGUCUCAAUCAACUCAUCAGAGGGGGGGAAAACCCCUUUACCCUCACUUUCAACAGCUCGCAGUCAAG	0.131
GGUCACGUCUCAAUCAACUCAUUUCCAGGAGUUUCCUCCUGCUAACUCAACAGCUCGCAGUCAAG	0.118
GGUCACGUCUCAAUCAACUCUACUCCAGGAGUUUCCUCCUGCUAUUUCAACAGCUCGCAGUCAAG	0.00662

Sequence	binding signal (log2 fold change)
GGUCACGUCUCAAUCAACUCAUCCCCCAGGGAAAUCCCUGGUAAACUCAACAGCUCGCAGUCAAG	0.154
GGUCACGUCUCAAUCAACUCAAUUCCAGGAGUUUCCUCCUGUAAAUUCAACAGCUCGCAGUCAAG	-0.0267
GGUCACGUCUCAAUCAACUCUAUUUCAGGAGUUUACUCCUGCAUACUCAACAGCUCGCAGUCAAG	0.0211
GGUCACGUCUCAAUCAACUCACACGAGGGGGGGAAAACCCCUUUGCCCUCAAAUUCAACAGCUCGCAGUCAAG	-0.15
GGUCACGUCUCAAUCAACUCAUUUUCAGGAGUUUUCUCCUGCAUAGUCAACAGCUCGCAGUCAAG	0.114
GGUCACGUCUCAAUCAACUCUACUCCAGGAGUUUCCUCCUGCUUAUUCAACAGCUCGCAGUCAAG	0.197
GGUCACGUCUCAAUCAACUCAUUUCCAGGAGUUUCCUCCUGUUUAGUCAACAGCUCGCAGUCAAG	0.219
GGUCACGUCUCAAUCAACUCAUCCCCCAGGGAAAUCCCUGGUAAUCUCAACAGCUCGCAGUCAAG	0.0778
GGUCACGUCUCAAUCAACUCUUACGAGGGGGGGAAAACCCCUUUACCCUCAAUCUCAACAGCUCGCAGUCAAG	-0.103
GGUCACGUCUCAAUCAACUCUAUCUCAGGAGUUUACUCCUGCAAACUCAACAGCUCGCAGUCAAG	0.174
GGUCACGUCUCAAUCAACUCUUCUCCAGGAGUUUCCUCCUGUUUUUUCAACAGCUCGCAGUCAAG	-0.0191
GGUCACGUCUCAAUCAACUCUCAGGAGGGGGGGAAAACCCCUUUACCCUCAACAUCAACAGCUCGCAGUCAAG	0.277
GGUCACGUCUCAAUCAACUCACUAGAGGGGGGGAAAACCCCUUUACCCUCCAUCUCAACAGCUCGCAGUCAAG	0.0387
GGUCACGUCUCAAUCAACUCAGUUUCCAGGGAAAUCCCUGGCAUUUUCAACAGCUCGCAGUCAAG	0.263
GGUCACGUCUCAAUCAACUCAUCCCCAGGAGUUUCCUCCUGCAUUCUCAACAGCUCGCAGUCAAG	0.291
GGUCACGUCUCAAUCAACUCCAUAGAGGGGGGGAAAACCCCUUUGCCCUCAAUCUCAACAGCUCGCAGUCAAG	-0.0126
GGUCACGUCUCAAUCAACUCACUCGAGGGGGGGAAAACCCCUUUACCCUCAACAUCAACAGCUCGCAGUCAAG	-0.167
GGUCACGUCUCAAUCAACUCAUCCCCCAGGGAAACCCCUGGCAUUCUCAACAGCUCGCAGUCAAG	-0.0449
